Laboratory results taken from the supplement of paper PMC10369915.
This is one part of the list. No stated cut-off is given here; in the data, active = 3.2 or more and inactive = the rest. Only a few entries rise above the background.

Molecular target: SHP2 C-SH2 domain E139D
Test: enrichment score (SH2-bound / input frequency) (ratio); bacterial display of known human phosphotyrosine sites (pTyr-Var adds point mutants) read by sequencing; higher = stronger binding; tyrosines were phosphorylated by kinases first
Settings: peptide library: pTyr-Var
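Further: displayed peptides selected on beads carrying the immobilized SH2 domain, with library peptides lacking any tyrosine serving as negative controls.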

Enrichment score, inactive:
RPDSPYSRPHD [DOK2_Y271] 0.741
SLQAHYDTPRS [DOK7_Y405_R402Q] 0.743
DNPAKYFILES [DPP10_Y512] 0.877
LHRHAYPEQRQ [DPPA2_Y127] 2.73
KHCEDYVCSYN [DSC1_Y846] 1.56
ALLTKYSHSSM [DSCC1_Y374] 1.2
ALLTKYSRSSM [DSCC1_Y374_H376R] 1.12
LQRVQYDLQKA [DSP_Y1512] 0.803
STASGYSDVTD [DTX2_Y425] 0.479
SAASGYSDVTD [DTX2_Y425_T421A] 0.328
VDSAHYKLLET [DTX3L_Y385] 0.829
FADGVYLALEE [DUOX2_Y70_Q71L_YF] 0.846
YLGRNYLETLM [DUS3L_Y610_D609N] 1.26
SHKELYKWFTS [DYNC1H1_Y3051_E3048K] 1.39
NPSYNYEIVNR [DYNC1H1_Y3379] 0.632
KPVDTYFDSTR [DYNC2H1_Y2230_M2227V_YF] 0.735
PMDTYYDSTRG [DYNC2H1_Y2231] 0.673
ATPSRYMTFLH [DYNC2H1_Y2872] 1.12

Molecular target: SHP2 C-SH2 domain wild-type
Test: as above
Settings: peptide library: pTyr-Var

Enrichment score, inactive:
RPDSPYSRPHD [DOK2_Y271] 0.615
SLQAHYDTPRS [DOK7_Y405_R402Q] 0.536
DNPAKYFILES [DPP10_Y512] 0.618
LHRHAYPEQRQ [DPPA2_Y127] 2.65
KHCEDYVCSYN [DSC1_Y846] 1.36
ALLTKYSHSSM [DSCC1_Y374] 1.08
ALLTKYSRSSM [DSCC1_Y374_H376R] 0.862
LQRVQYDLQKA [DSP_Y1512] 1.11
STASGYSDVTD [DTX2_Y425] 0.568
SAASGYSDVTD [DTX2_Y425_T421A] 0.709
VDSAHYKLLET [DTX3L_Y385] 0.626
FADGVYLALEE [DUOX2_Y70_Q71L_YF] 0.887
YLGRNYLETLM [DUS3L_Y610_D609N] 1.5
SHKELYKWFTS [DYNC1H1_Y3051_E3048K] 1.51
NPSYNYEIVNR [DYNC1H1_Y3379] 0.751
KPVDTYFDSTR [DYNC2H1_Y2230_M2227V_YF] 0.839
PMDTYYDSTRG [DYNC2H1_Y2231] 0.616
ATPSRYMTFLH [DYNC2H1_Y2872] 1.97

Molecular target: SHP2 N-SH2 domain L43F
Test: as above
Settings: peptide library: pTyr-Var

Enrichment score, inactive:
RPDSPYSRPHD [DOK2_Y271] 0.685
SLQAHYDTPRS [DOK7_Y405_R402Q] 0.631
DNPAKYFILES [DPP10_Y512] 0.765
LHRHAYPEQRQ [DPPA2_Y127] 2.53
KHCEDYVCSYN [DSC1_Y846] 1.67
ALLTKYSHSSM [DSCC1_Y374] 1.26
ALLTKYSRSSM [DSCC1_Y374_H376R] 0.964
LQRVQYDLQKA [DSP_Y1512] 0.81
STASGYSDVTD [DTX2_Y425] 0.392
SAASGYSDVTD [DTX2_Y425_T421A] 0.249
VDSAHYKLLET [DTX3L_Y385] 0.674
FADGVYLALEE [DUOX2_Y70_Q71L_YF] 0.927
YLGRNYLETLM [DUS3L_Y610_D609N] 1.39
SHKELYKWFTS [DYNC1H1_Y3051_E3048K] 1.22
NPSYNYEIVNR [DYNC1H1_Y3379] 0.652
KPVDTYFDSTR [DYNC2H1_Y2230_M2227V_YF] 0.837
PMDTYYDSTRG [DYNC2H1_Y2231] 0.834
ATPSRYMTFLH [DYNC2H1_Y2872] 0.88

Molecular target: SHP2 N-SH2 domain T42A
Test: as above
Settings: peptide library: pTyr-Var

Enrichment score, inactive:
RPDSPYSRPHD [DOK2_Y271] 0.423
SLQAHYDTPRS [DOK7_Y405_R402Q] 0.527
DNPAKYFILES [DPP10_Y512] 0.832
LHRHAYPEQRQ [DPPA2_Y127] 2.59
KHCEDYVCSYN [DSC1_Y846] 1.37
ALLTKYSHSSM [DSCC1_Y374] 1.03
ALLTKYSRSSM [DSCC1_Y374_H376R] 0.879
LQRVQYDLQKA [DSP_Y1512] 0.873
STASGYSDVTD [DTX2_Y425] 0.462
SAASGYSDVTD [DTX2_Y425_T421A] 0.416
VDSAHYKLLET [DTX3L_Y385] 0.647
FADGVYLALEE [DUOX2_Y70_Q71L_YF] 0.917
YLGRNYLETLM [DUS3L_Y610_D609N] 1.5
SHKELYKWFTS [DYNC1H1_Y3051_E3048K] 1.62
NPSYNYEIVNR [DYNC1H1_Y3379] 0.597
KPVDTYFDSTR [DYNC2H1_Y2230_M2227V_YF] 0.558
PMDTYYDSTRG [DYNC2H1_Y2231] 0.686
ATPSRYMTFLH [DYNC2H1_Y2872] 1.61

Molecular target: SHP2 N-SH2 domain T52S
Test: as above
Settings: peptide library: pTyr-Var

Enrichment score, inactive:
RPDSPYSRPHD [DOK2_Y271] 0.572
SLQAHYDTPRS [DOK7_Y405_R402Q] 0.636
DNPAKYFILES [DPP10_Y512] 0.92
LHRHAYPEQRQ [DPPA2_Y127] 2.7
KHCEDYVCSYN [DSC1_Y846] 1.56
ALLTKYSHSSM [DSCC1_Y374] 1.07
ALLTKYSRSSM [DSCC1_Y374_H376R] 1.12
LQRVQYDLQKA [DSP_Y1512] 0.727
STASGYSDVTD [DTX2_Y425] 0.463
SAASGYSDVTD [DTX2_Y425_T421A] 0.319
VDSAHYKLLET [DTX3L_Y385] 0.729
FADGVYLALEE [DUOX2_Y70_Q71L_YF] 0.862
YLGRNYLETLM [DUS3L_Y610_D609N] 1.36
SHKELYKWFTS [DYNC1H1_Y3051_E3048K] 1.8
NPSYNYEIVNR [DYNC1H1_Y3379] 0.734
KPVDTYFDSTR [DYNC2H1_Y2230_M2227V_YF] 0.937
PMDTYYDSTRG [DYNC2H1_Y2231] 0.764
ATPSRYMTFLH [DYNC2H1_Y2872] 0.844

Molecular target: SHP2 N-SH2 domain wild-type
Test: as above
Settings: peptide library: pTyr-Var

Enrichment score, inactive:
RPDSPYSRPHD [DOK2_Y271] 0.783
SLQAHYDTPRS [DOK7_Y405_R402Q] 0.732
DNPAKYFILES [DPP10_Y512] 0.886
LHRHAYPEQRQ [DPPA2_Y127] 2.78
KHCEDYVCSYN [DSC1_Y846] 1.61
ALLTKYSHSSM [DSCC1_Y374] 1.36
ALLTKYSRSSM [DSCC1_Y374_H376R] 0.902
LQRVQYDLQKA [DSP_Y1512] 0.602
STASGYSDVTD [DTX2_Y425] 0.571
SAASGYSDVTD [DTX2_Y425_T421A] 0.419
VDSAHYKLLET [DTX3L_Y385] 0.77
FADGVYLALEE [DUOX2_Y70_Q71L_YF] 0.854
YLGRNYLETLM [DUS3L_Y610_D609N] 1.17
SHKELYKWFTS [DYNC1H1_Y3051_E3048K] 1.44
NPSYNYEIVNR [DYNC1H1_Y3379] 0.725
KPVDTYFDSTR [DYNC2H1_Y2230_M2227V_YF] 0.981
PMDTYYDSTRG [DYNC2H1_Y2231] 0.858
ATPSRYMTFLH [DYNC2H1_Y2872] 0.993
